Among all 220,000 compounds or so, about 2,300 (1%) were called active. Inconclusive means that the source gave no clear call. Such entries were picked first, then a sample of the others. Calls follow the shape of the dose curve; as a rule, active = well fitted inhibition curve with a large enough effect; inconclusive = small, poorly fitted or top-dose-only effect, or effect the other way; inactive = no such curve, though single readings can be large or run the other way. Potencies of inconclusive entries are left out as doubtful fits.
What follows are molecules tested against Neuropeptide S receptor (Homo sapiens) (UniProt Q6W5P4) (assay: qHTS Assay for Antagonists of the Neuropeptide S Receptor: cAMP Signal Transduction). Details: CHO-NPSR cells, cAMP TR-FRET, antagonist mode; activity change, negative = inhibition: at 38.3 µM (top of the series) unless noted.
Sequence of UniProt Q6W5P4 (Q6W5P4 whole entry, looked up): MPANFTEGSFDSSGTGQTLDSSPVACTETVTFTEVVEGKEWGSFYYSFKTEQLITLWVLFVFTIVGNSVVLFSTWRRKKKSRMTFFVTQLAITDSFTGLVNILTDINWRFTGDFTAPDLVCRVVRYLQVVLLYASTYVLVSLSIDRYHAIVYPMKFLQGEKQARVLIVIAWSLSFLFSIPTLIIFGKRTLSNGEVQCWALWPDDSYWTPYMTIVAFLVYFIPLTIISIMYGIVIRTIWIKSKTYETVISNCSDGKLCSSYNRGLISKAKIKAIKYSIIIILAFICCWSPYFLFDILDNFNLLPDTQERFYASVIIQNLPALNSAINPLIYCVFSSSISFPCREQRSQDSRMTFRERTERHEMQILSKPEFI
For `CCOC(=O)c1cnc(-n2nc(C)cc2C)nc1Nc1ccc2c(c1)OCO2`, the Potency was inconclusive [inhibitor, partial curve, poor fit].
With `Fc1ccccc1/C=C1\CCCC2=C1Nc1ncnn1C2c1ccccc1F` (stereo unspecified) the Potency was inconclusive [inhibitor, partial curve].
For `Cc1[nH]c2ccccc2c1/C=N/Nc1nc(Nc2ccc(F)cc2)nc(N2CCOCC2)n1`, the Potency was inconclusive [inhibitor, single point].
In the case of `O=C(O)CCn1cc(/C=C\C(=O)c2ccc(Cl)cc2)c(-c2cccc(Br)c2)n1`, the Potency is reported as inconclusive [inhibitor, partial curve].
In the case of `CC(C)C(C(=O)NCc1ccco1)N(CC1CCCO1)C(=O)CNS(=O)(=O)c1ccccc1` (stereo unspecified), the Potency is reported as inconclusive [activator, single point].
For `O=C(N/N=C/c1ccc(N2CCOCC2)o1)c1cccc(C(F)(F)F)c1`, the Potency was inconclusive [inhibitor, single point].
`O=C(O)c1cccc(N2C(=O)c3cccc4c(Cl)ccc(c34)C2=O)c1` was tested, and the “activity change, negative = inhibition” value was inactive: -38.1%.
`CN(c1ccccc1)S(=O)(=O)c1cccc(NC(=O)CSc2ncn[nH]2)c1` was tested, and the “activity change, negative = inhibition” value was inactive: 28.6%.
`O=C(CC12CC3CC(CC(C3)C1)C2)NCc1ccncc1` was tested, and the “activity change, negative = inhibition” value was inactive: 0.679% [at 46.1 µM].
In the case of `COC(=O)c1sc2ncccc2c1OCc1c(Cl)cccc1Cl`, the Potency is reported as inconclusive [inhibitor, single point].
For `O=C(NCc1ccco1)c1ccc2c(c1)C(=O)N(C1CCCCC1)C2=O`, the “activity change, negative = inhibition” value was inactive: -26.4% [at 46.1 µM].
With `Cc1ccc(-c2cc(-c3ccc4c(c3)OCO4)c(C#N)c(N)n2)o1` the Potency was inconclusive [inhibitor, partial curve, poor fit].
With `O=C(O)[C@H](Cc1ccccc1)NC(=O)C(c1ccccc1)(c1ccccc1)c1ccccc1` the Potency was inconclusive [activator, single point].
`Cc1cc(N=Nc2ccccc2C(=O)O)c(C)c(C)c1O` was tested, and the Potency was inconclusive [inhibitor, single point].
In the case of `Cc1cccc(Nc2nn3c(=O)c4ccccc4nc3s2)c1`, the Potency is reported as inconclusive [activator, single point].
For `COC(=O)[C@@]1(Cc2ccccc2)[C@@H]2C(=CC(=O)[C@H]2CC(=O)C(=O)N(C)C)CN1C(=O)c1ccccc1`, the “activity change, negative = inhibition” value was inactive: -19.8%.
For `CCCc1[nH]nc2c1C(c1ccc(OC)c(Cn3nc(C)c(Br)c3C)c1)C(C#N)=C(N)O2` (stereo unspecified), the Potency was inconclusive [inhibitor, single point].
In the case of `COc1ccc(C2C(C(=O)c3ccco3)=C(O)C(=O)N2c2nnc(C)s2)cc1` (stereo unspecified), the Potency is reported as inconclusive [inhibitor, full curve, poor fit].
`O=C(COC(=O)CCC(=O)c1cccs1)Nc1cc(S(=O)(=O)N2CCOCC2)ccc1Cl` was tested, and the “activity change, negative = inhibition” value was inactive: -13.3% [at 46.1 µM].
For `Cc1cc(-c2c(C)[nH]n(-c3ccc(Cl)cc3)c2=O)n[nH]1`, the Potency was inconclusive [inhibitor, partial curve].
`S=c1nc[nH]c2c1[nH]c1ccccc12` was tested, and the Potency was inconclusive [activator, partial curve].
In the case of `COc1ccccc1NC(=S)NCCc1ccc(F)cc1`, the “activity change, negative = inhibition” value is reported as inactive: -7.39%.
`CCOC(=O)c1cnc(SCC(=O)Nc2cc(C(F)(F)F)ccc2N2CCOCC2)nc1N` was tested, and the Potency was inconclusive [activator, partial curve, poor fit].
In the case of `CCOc1ccc(NC(=O)Nc2nnc(CC)s2)cc1`, the Potency is reported as inconclusive [inhibitor, single point].
In the case of `C=CCn1cnc2scc(-c3ccccc3)c2c1=O`, the Potency is reported as inconclusive [inhibitor, single point].
`CCOC(=O)c1sc(NC(=O)CSc2nc3c(cc2C#N)CCCCC3)c(C#N)c1C` was tested, and the Potency was inconclusive [inhibitor, single point].
For `CCN(CC)c1ccc(/C=N/Nc2nc(C)cc(=O)[nH]2)cc1`, the Potency was inconclusive [inhibitor, partial curve].
For `CCOC(=O)c1c(NC(=O)C2=C(C)NC(=S)NC2c2ccc(CC)cc2)sc(C)c1C` (stereo unspecified), the “activity change, negative = inhibition” value was inactive: -27.7%.
`CC(=O)Nc1ccc(S(=O)(=O)NNC(=O)COc2ccc(C(C)(C)C)cc2)cc1` was tested, and the Potency was inconclusive [inhibitor, single point].
In the case of `CCC(C)(C)n1nnnc1C(c1cc2ccc(OC)cc2[nH]c1=O)N1CCc2ccccc21` (stereo unspecified), the Potency is reported as inconclusive [inhibitor, partial curve, poor fit].
In the case of `O=C1CC(NC(=O)C(F)(F)F)c2cc3c(cc21)OCO3` (stereo unspecified), the “activity change, negative = inhibition” value is reported as inactive: 12.7%.
In the case of `C=CCOc1c(Cl)cc(CNc2ccc(N(C)C)cc2)cc1OC`, the Potency is reported as active: 5.01 µM.
`COc1ccc(-n2c(C)c(C(C)=O)c3cc(O)ccc32)cc1` was tested, and the Potency was inconclusive [inhibitor, single point].
In the case of `CCOc1cc(-c2cc(-c3ccccc3)nc(N)c2C#N)ccc1O`, the Potency is reported as inconclusive [inhibitor, partial curve].
With `O=C(NCc1ccco1)c1ccccc1-c1ccccc1` the Potency was inconclusive [inhibitor, single point].
For `COc1ccc(CN(C(=O)c2cc(=O)c3cc(C)cc(C)c3o2)C2CCS(=O)(=O)C2)cc1` (stereo unspecified), the activity change, negative = inhibition was inactive: 7.22% [at 7.67 µM].
`Cc1cc2nc(C)n(CCCNC(=O)Nc3cccc4ccccc34)c2cc1C` was tested, and the Potency was inconclusive [inhibitor, single point].
`CCCCCCCCC[n+]1cccc2c3ccccc3ccc21` was tested, and the Potency was inconclusive [inhibitor, single point].
For `N#Cc1nc(-c2ccco2)oc1N1CCC(Cc2ccccc2)CC1`, the Potency was inconclusive [inhibitor, partial curve, poor fit].
With `COc1ccc(-n2cnnc2SCC(=O)N2CCN(S(=O)(=O)c3ccccc3)CC2)cc1` the Potency was inconclusive [inhibitor, single point].
`Cc1ccc(-c2nnc(NCc3ccccc3)c3ccccc23)cc1` was tested, and the Potency was inconclusive [inhibitor, single point].
With `CC(C)NC(=O)c1cccc(C(F)(F)F)c1` the Potency was inconclusive [inhibitor, single point].
In the case of `O=C1S/C(=C/c2ccc(N3CCOCC3)o2)C(=O)N1Cc1c(F)cccc1Cl`, the Potency is reported as inconclusive [inhibitor, single point].
`O=C(Nc1ccccc1-c1nc2ccccc2[nH]1)c1sc2ccccc2c1Cl` was tested, and the Potency was inconclusive [inhibitor, single point].
In the case of `CCCCC1(Cc2ccc(OC)c([N+](=O)[O-])c2)C(=O)N(c2ccccc2)N(c2ccccc2)C1=O`, the Potency is reported as inconclusive [inhibitor, partial curve, poor fit].
For `CCc1ccc2nc(SCC(=O)N(CC)CC)c(C#N)cc2c1`, the Potency was inconclusive [inhibitor, single point].
In the case of `O=C1NN(c2ccccc2)C(=O)/C1=C\c1cccc(OC(=O)c2cccs2)c1`, the Potency is reported as inconclusive [inhibitor, single point].
In the case of `Cc1ccc(C)c(CN2C(=O)C(C)Oc3ccc(C)cc32)c1` (stereo unspecified), the Potency is reported as inconclusive [inhibitor, single point].
For `Cc1nn(-c2ccccc2)c2sc(C(=O)NNC(=O)COc3ccccc3)cc12`, the Potency was inconclusive [inhibitor, full curve, poor fit].
`COc1cc(OC)nc(Oc2ccccc2C(=O)Oc2ccccc2Cl)n1` was tested, and the Potency was inconclusive [inhibitor, single point].
With `O=C(c1ccc(Cl)cc1)c1c[nH]c(C(=O)NNc2cccc(Cl)n2)c1` the Potency was inconclusive [inhibitor, single point].
`COc1ccc(NC(=O)CCN2C(=O)C3C4CCC(C4)C3C2=O)cc1` (stereo unspecified) was tested, and the “activity change, negative = inhibition” value was inactive: 11.1%.
In the case of `CCCOc1ccc(C(=O)N2CCN(c3ccc(NC(=O)CC)cc3Cl)CC2)cc1`, the Potency is reported as inconclusive [inhibitor, partial curve, poor fit].
For `CCN(CCNCC(O)COCc1ccc(Cl)cc1)c1cccc(C)c1` (stereo unspecified), the Potency was inconclusive [inhibitor, single point].
In the case of `COCCn1c(SCc2ccc(C(=O)OC)o2)nc2ccccc2c1=O`, the “activity change, negative = inhibition” value is reported as inactive: -7.64% [at 46.1 µM].
With `CN(C(=O)c1cccc(COc2ccc(Cl)cc2Cl)c1)c1ccccc1` the “activity change, negative = inhibition” value was inactive: -42%.
For `O=C(NC1CC1)C1=C[C@H](c2ccc3c(c2)OCO3)C[C@H](OCc2ccc(CO)cc2)O1`, the “activity change, negative = inhibition” value was inactive: 3.79%.
For `CC1CCCCC1NC(=S)NC(=O)c1sc2ccccc2c1Cl` (stereo unspecified), the “activity change, negative = inhibition” value was inactive: 16.3%.
`CCOC(=O)c1sc(=S)n(C)c1NC(=O)c1cccc(Br)c1` was tested, and the Potency was inconclusive [inhibitor, single point].
With `Cc1cc(C(=O)CCl)c(C)n1CC1COc2ccccc2O1` (stereo unspecified) the Potency was inconclusive [inhibitor, single point].
With `CC(C)CN(CC(C)C)c1nnc(NC(=O)Cn2c(=O)oc3ccccc32)s1` the Potency was inconclusive [inhibitor, full curve, poor fit].
For `COc1ccccc1NC(=O)c1csc(-n2nc(C)cc2C(F)(F)F)n1`, the “activity change, negative = inhibition” value was inactive: -0.64% [at 46.1 µM].
With `COc1ccc(Cc2[nH]n3c(=O)cc(C(C)C)nc3c2-c2ccccc2)cc1` the “activity change, negative = inhibition” value was inactive: -15.6%.
In the case of `Cc1cccc(CNc2ccc(C(CC(N)=O)NC(=O)Cc3cccc4ccccc34)cc2[N+](=O)[O-])c1` (stereo unspecified), the Potency is reported as inconclusive [inhibitor, single point].
For `COCCNC(=O)c1nc2c(nnn2Cc2cc(C)ccc2C)c(=O)[nH]1`, the Potency was inconclusive [inhibitor, full curve, poor fit].
For `CCOC(=O)Cc1csc(NC(=O)c2ccc(S(=O)(=O)N3CCCC3)cc2)n1`, the “activity change, negative = inhibition” value was inactive: -12.5% [at 46.1 µM].

Source: PubChem BioAssay AID1461 (National Center for Advancing Translational Sciences (NCATS), 2008)
% is scaled to controls: 0 for no effect and ±100 for the full control effect; potency is read from the fitted curve at half-maximal effect; tags tell the direction and shape of the fitted curve.
Also: nearly all actives have a fitted effect of over 50% in size.
